In the supplement of paper PMC8728848:
Some of the results follow.

How the values were obtained:
Test in all cases: glycan array binding signal (z-score within array); higher = stronger binding
Settings in all cases: glycan notation: IUPAC condensed, linker removed
[1] = biological target: Fuc(a1-3)[Gal3S(b1-4)]GlcNAc
Procedure, shortened: (§1)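 From the Consortium for Functional Glycomics database, 3228 arrays were curated, keeping only those whose protein sequence was available. Binding is given as a within-array Z-score averaged across arrays sharing a protein sequence and across linkers. Negative Z-scores can be read as non-binding.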

[2] = biological target: Fuc(a1-3)[Gal3S(b1-4)]GlcNAc6S
Procedure, shortened: as §1

[3] = biological target: Fuc(a1-3)[GalNAc(b1-4)]GlcNAc
Procedure, shortened: as §1

[4] = biological target: Fuc(a1-3)[GalNAc(b1-4)]GlcNAc6S
Procedure, shortened: as §1

[5] = biological target: Fuc(a1-4)GlcNAc
Procedure, shortened: as §1

[6] = biological target: Fuc(b1-3)GlcNAc
Procedure, shortened: as §1

[7] = biological target: Gal(a1-2)Gal
Procedure, shortened: as §1

[8] = biological target: Gal(a1-3)Gal
Procedure, shortened: as §1

[9] = biological target: Gal(a1-3)Gal(b1-3)GlcNAc
Procedure, shortened: as §1

[10] = biological target: Gal(a1-3)Gal(b1-3)GlcNAc(b1-2)Man
Procedure, shortened: as §1

[11] = biological target: Gal(a1-3)Gal(b1-3)GlcNAc(b1-2)Man(a1-3)[Gal(a1-3)Gal(b1-3)GlcNAc(b1-2)Man(a1-6)]Man(b1-4)GlcNAc(b1-4)GlcNAc
Procedure, shortened: as §1

[12] = biological target: Gal(a1-3)Gal(b1-3)GlcNAc(b1-3)GalNAc
Procedure, shortened: as §1

[13] = biological target: Gal(a1-3)Gal(b1-3)GlcNAc(b1-6)GalNAc
Procedure, shortened: as §1

[14] = biological target: Gal(a1-3)Gal(b1-3)[Fuc(a1-4)]GlcNAc(b1-2)Man(a1-3)[Gal(a1-3)Gal(b1-3)[Fuc(a1-4)]GlcNAc(b1-2)Man(a1-6)]Man(b1-4)GlcNAc(b1-4)GlcNAc
Procedure, shortened: as §1

[15] = biological target: Gal(a1-3)Gal(b1-4)Glc
Procedure, shortened: as §1

[16] = biological target: Gal(a1-3)Gal(b1-4)GlcNAc
Procedure, shortened: as §1

[17] = biological target: Gal(a1-3)Gal(b1-4)GlcNAc(b1-2)Man
Procedure, shortened: as §1

[18] = biological target: Gal(a1-3)Gal(b1-4)GlcNAc(b1-2)Man(a1-3)[Gal(a1-3)Gal(b1-4)GlcNAc(b1-2)Man(a1-6)]Man(b1-4)GlcNAc(b1-4)GlcNAc
Procedure, shortened: as §1

[19] = biological target: Gal(a1-3)Gal(b1-4)GlcNAc(b1-3)GalNAc
Procedure, shortened: as §1

[20] = biological target: Gal(a1-3)Gal(b1-4)GlcNAc(b1-6)GalNAc
Procedure, shortened: as §1

[21] = biological target: Gal(a1-3)Gal(b1-4)[Fuc(a1-3)]GlcNAc
Procedure, shortened: as §1

[22] = biological target: Gal(a1-3)Gal(b1-4)[Fuc(a1-3)]GlcNAc(b1-2)Man(a1-3)[Gal(a1-3)Gal(b1-4)[Fuc(a1-3)]GlcNAc(b1-2)Man(a1-6)]Man(b1-4)GlcNAc(b1-4)GlcNAc
Procedure, shortened: as §1

[23] = biological target: Gal(a1-3)GalNAc
Procedure, shortened: as §1

[24] = biological target: Gal(a1-3)[Gal(a1-4)]Gal(b1-4)GlcNAc
Procedure, shortened: as §1

[25] = biological target: Gal(a1-4)Gal(b1-3)GlcNAc(b1-2)Man(a1-3)[Gal(a1-4)Gal(b1-3)GlcNAc(b1-2)Man(a1-6)]Man(b1-4)GlcNAc(b1-4)GlcNAc
Procedure, shortened: as §1

[26] = biological target: Gal(a1-4)Gal(b1-4)Glc
Procedure, shortened: as §1

[27] = biological target: Gal(a1-4)Gal(b1-4)GlcNAc
Procedure, shortened: as §1

[28] = biological target: Gal(a1-4)Gal(b1-4)GlcNAc(b1-2)Man(a1-3)[Gal(a1-4)Gal(b1-4)GlcNAc(b1-2)Man(a1-6)]Man(b1-4)GlcNAc(b1-4)GlcNAc
Procedure, shortened: as §1

[29] = biological target: Gal(a1-4)Gal(b1-4)GlcNAc(b1-3)Gal(b1-4)Glc
Procedure, shortened: as §1

[30] = biological target: Gal(a1-4)GlcNAc
Procedure, shortened: as §1

[31] = biological target: Gal(a1-6)Glc
Procedure, shortened: as §1

[32] = biological target: Gal(b1-2)Gal
Procedure, shortened: as §1

[33] = biological target: Gal(b1-3)Gal
Procedure, shortened: as §1

[34] = biological target: Gal(b1-3)Gal(b1-4)GlcNAc
Procedure, shortened: as §1

[35] = biological target: Gal(b1-3)GalNAc
Procedure, shortened: as §1

[36] = biological target: Gal(b1-3)GalNAc(a1-3)[Fuc(a1-2)]Gal(b1-4)Glc
Procedure, shortened: as §1

[37] = biological target: Gal(b1-3)GalNAc(a1-3)[Fuc(a1-2)]Gal(b1-4)GlcNAc
Procedure, shortened: as §1

B1: DC-ASGPR Long (Homo sapiens) (protein)
chain: MTRTYENFQYLENKVKVQGFKNGPLPLQSLLQRLRSGPCHLLLSLGLGLLLLVIICVVGFQNSKFQRDLVTLRTDFSNFTSNTVAEIQALTSQGSSLEETIASLKAEVEGFKQERQAGVSELQEHTTQKAHLGHCPHCPSVCVPVHSEMLLRVQQLVQDLKKLTCQVATLNNNASTEGTCCPVNWVEHQDSCYWFSHSGMSWAEAEKYCQLKNAHLVVINSREEQNFVQKYLGSAYTWMGLSDPEGAWKWVDGTDYATGFQNWKPGQPDDWQGHGLGGGEDCAHFHPDGGWNDDVCQRPYHWVCEAGLGQTSQESH
glycan array binding signal (z-score) [1]: -0.08
glycan array binding signal (z-score) [2]: 0.1
glycan array binding signal (z-score) [3]: 1.59
glycan array binding signal (z-score) [4]: 0.742
glycan array binding signal (z-score) [5]: -0.267
glycan array binding signal (z-score) [6]: -0.173
glycan array binding signal (z-score) [7]: -0.325
glycan array binding signal (z-score) [8]: 0.361
glycan array binding signal (z-score) [9]: -0.064
glycan array binding signal (z-score) [10]: -0.229
glycan array binding signal (z-score) [11]: -0.541
glycan array binding signal (z-score) [12]: -0.252
glycan array binding signal (z-score) [13]: 3.07
glycan array binding signal (z-score) [14]: -0.278
glycan array binding signal (z-score) [15]: -0.226
glycan array binding signal (z-score) [16]: -0.382
glycan array binding signal (z-score) [17]: -0.092
glycan array binding signal (z-score) [18]: -0.396
glycan array binding signal (z-score) [19]: -0.114
glycan array binding signal (z-score) [20]: 3.58
glycan array binding signal (z-score) [21]: -0.414
glycan array binding signal (z-score) [22]: 0.459
glycan array binding signal (z-score) [23]: -0.006
glycan array binding signal (z-score) [24]: -0.216
glycan array binding signal (z-score) [25]: -0.383
glycan array binding signal (z-score) [26]: -0.365
glycan array binding signal (z-score) [27]: -0.101
glycan array binding signal (z-score) [28]: -0.324
glycan array binding signal (z-score) [29]: -0.788
glycan array binding signal (z-score) [30]: -0.054
glycan array binding signal (z-score) [31]: 1.29
glycan array binding signal (z-score) [32]: -0.067
glycan array binding signal (z-score) [33]: 0.299
glycan array binding signal (z-score) [34]: -0.207
glycan array binding signal (z-score) [35]: -0.129
glycan array binding signal (z-score) [36]: -0.124
glycan array binding signal (z-score) [37]: -0.289
